Data: PubChem BioAssay AID360 (National Center for Advancing Translational Sciences (NCATS), 2006)
In all, about 48,000 compounds went through this assay and about 550 (1.1%) were called active. Another 4% or so got no clear call; they are omitted. Rule as the data show it: active = potency below about 15 µM; inconclusive = mostly about 16 µM to 33 µM; inactive = weaker than that. The list shows a part of the results.

target: Lysosomal acid glucosylceramidase (Homo sapiens) (UniProt P04062); assay: Glucocerebrosidase; conditions: purified enzyme, resorufin glucoside fluorescence (screen aimed at inhibitors), 20 min;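 also: the screen sought inhibitors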
UniProt P04062, sequence (P04062 whole entry, looked up): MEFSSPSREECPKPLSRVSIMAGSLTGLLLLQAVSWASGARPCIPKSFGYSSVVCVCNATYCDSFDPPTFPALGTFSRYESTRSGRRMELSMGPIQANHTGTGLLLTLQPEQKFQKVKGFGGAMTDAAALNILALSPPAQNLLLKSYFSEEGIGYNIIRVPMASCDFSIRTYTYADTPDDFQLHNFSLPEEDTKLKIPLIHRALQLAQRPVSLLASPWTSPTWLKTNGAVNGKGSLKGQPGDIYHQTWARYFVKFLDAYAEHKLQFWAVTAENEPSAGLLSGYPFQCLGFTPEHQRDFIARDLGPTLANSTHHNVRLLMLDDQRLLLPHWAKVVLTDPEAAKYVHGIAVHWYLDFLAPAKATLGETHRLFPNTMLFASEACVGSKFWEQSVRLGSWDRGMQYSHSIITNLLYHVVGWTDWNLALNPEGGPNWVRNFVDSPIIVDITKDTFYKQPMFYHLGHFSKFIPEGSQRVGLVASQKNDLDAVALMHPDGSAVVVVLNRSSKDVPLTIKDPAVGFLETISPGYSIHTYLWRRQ
In short: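 Wild-type enzyme at 0.2 nM final in 50mM citric acid/KH2PO4, 10mM sodium taurocholate, 0.01% tween-20, pH 5.9, with resorufin beta-D-glucopyranoside at 30 uM final. Compounds titrated, 20 min at RT, red fluorescence read; AC50 from titration.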
Potency is read from the fitted curve at half-maximal effect.

Potency, inactive:
CC(=O)N(Cc1cc2c(C)cc(C)cc2[nH]c1=O)C1CCCCC1 > 76.9 µM
NS(=O)(=O)c1ccc(CCNC(=O)c2ccccc2F)cc1 > 76.9 µM
O=C(CCCn1c(=O)[nH]c2ccsc2c1=O)N1CCN(c2ccccn2)CC1 > 76.9 µM
Cn1ccnc1SCC(=O)NC1CCCCC1 > 76.9 µM
Cn1c(CSc2nnc(SCc3ccccc3)s2)nc2ccccc21 > 76.9 µM
Cc1onc(-c2c(Cl)cccc2Cl)c1C(=O)NCc1ccco1 > 76.9 µM
Cc1ccccc1Cn1nc(C)c(NC(=O)c2nc3n(n2)C(C(F)F)CC(C)N3)c1C (stereo unspecified) > 76.9 µM
O=C1c2ccccc2C(=O)N1n1c(=O)[nH]c2ccccc2c1=O > 76.9 µM
O=C(CN1C(=O)CSC1=O)Nc1ccc(N2CCOCC2)cc1 > 76.9 µM
CCOC(=O)N1CCN(c2nnnn2-c2ccccc2)CC1 > 76.9 µM
Cc1cc(C)n(S(=O)(=O)c2ccc(C(C)(C)C)cc2)n1 > 76.9 µM
COc1ccc(C(=O)N(CN2CCCC2=O)c2nccs2)cc1OC > 76.9 µM
Cc1ccc(NS(=O)(=O)c2cccc(C(=O)N3CCOCC3)c2)cc1 > 76.9 µM
CC1(C)CC(=O)C2=C(C1)Oc1ncn3nc(-c4cccnc4)nc3c1C2c1ccccc1 (stereo unspecified) > 76.9 µM
CCSC1=C(C#N)C(c2cccc(OC)c2)CC(=O)N1 (stereo unspecified) > 76.9 µM
CCOC(=O)N1CCC(C(N)=O)CC1 > 76.9 µM
CCN(CCCNC(=O)CN1C(=O)COc2ccccc21)c1cccc(C)c1 > 76.9 µM
CC(C)[C@H](NC(=O)NCc1ccco1)C(=O)O > 76.9 µM
O=C(NCc1ccco1)C1CCCN(S(=O)(=O)c2ccc(-n3cnnn3)cc2)C1 (stereo unspecified)
O=C(Oc1ccc(-c2ccccc2)cc1)N1CCCCC1 > 76.9 µM
CC1CCCN(C(=O)Cn2c(=O)oc3ccccc32)C1 (stereo unspecified) > 76.9 µM
CCC1CCCCN1C(=O)CSc1nnc(-c2ccc3c(c2)OCCO3)o1 (stereo unspecified) > 76.9 µM
Cc1ccc(CNC(=O)CSc2nc3ccccc3c(=O)n2CCCO)cc1 > 76.9 µM
CCOC(=O)c1cc(C)[nH]c(=S)c1C#N > 76.9 µM
CC1CN(S(=O)(=O)Cc2ccccc2)CC(C)O1 (stereo unspecified) > 76.9 µM
O=C(Nc1ccc(N2CCN(Cc3ccccc3)CC2)cc1)c1ncn[nH]1 > 76.9 µM
O=C1c2ccccc2C(=O)N1CCC(=O)N1CCc2ccccc21 > 76.9 µM
CSCCC(NC(=O)c1ccccc1)C(=O)NC1CCCC1 (stereo unspecified) > 76.9 µM
O=C(OCC(O)CN1CCCCC1)C12CC3CC(CC(C3)C1)C2 (stereo unspecified) > 76.9 µM
O=C1NC(Nc2ccccn2)(C(F)(F)F)C(=O)N1c1ccc(F)cc1 (stereo unspecified)
COc1cc(/C=C/C2=NC(=O)C(C)(C)O2)ccc1O > 76.9 µM
O=C1C(c2ccc(F)cc2)N(Cc2ccc3c(c2)OCO3)C(=O)CN1C1CCCCC1 (stereo unspecified) > 76.9 µM
Cc1ccc(OCCN2C(=O)c3ccccc3C2=O)c(C)c1 > 76.9 µM
Cc1ccc(-c2nnc3c4ccccc4c(C)nn23)cc1NC(=O)c1ccco1 > 76.9 µM
c1ccc(-n2ncc3c2ncn2nc(CSc4nc5ccccc5s4)nc32)cc1 > 76.9 µM
COCCNC(=O)c1ccc(Cn2c(=S)[nH]c3cc4c(cc3c2=O)OCO4)cc1 > 76.9 µM
CCCC(=O)Nc1ccccc1N1CCN(C(=O)C(C)C)CC1 > 76.9 µM
Cc1ccc(Nc2nc(Oc3ccc(=O)[nH]n3)nc(N(C)C)n2)cc1 > 76.9 µM
COc1cccc(C2NC(=O)c3ccccc3O2)c1OC (stereo unspecified) > 76.9 µM
O=C(CCn1c(=O)sc2ccccc21)NCc1ccc2c(c1)OCO2 > 76.9 µM
COc1cc(-n2nnnc2SCC(=O)N2CCN(c3ccc(F)cc3)CC2)c(OC)cc1Cl > 76.9 µM
Cc1ccc(Cc2cncc(O)c2)cc1S(=O)(=O)O > 76.9 µM
Cn1c(CCN2CCN(c3ccc(F)cc3)CC2)nc2cc(NC(=O)c3ccco3)ccc21 > 76.9 µM
C=CCSc1nnc(-c2c[nH]c3ccccc23)n1CCOC > 76.9 µM
CC(=O)N=c1sc(C(C)(C)C)c(C)n1C > 76.9 µM
COCc1cc(C)nc2sc(C(=O)OC)c(N)c12 > 76.9 µM
O=C(O)C1=C(C(=O)N2CCN(C(=O)c3ccco3)CC2)CCCC1 > 76.9 µM
CCCC(C(=O)NCc1ccc(OC)cc1)N(Cc1ccco1)C(=O)c1snc(C(N)=O)c1N (stereo unspecified) > 76.9 µM
O=C(c1ccc2c(c1)OCCO2)C1CCN(C(=O)c2ccc(F)c(F)c2)CC1 > 76.9 µM
COC(=O)c1ccccc1NC(=O)C1CC(=O)N(C2CCCCC2)C1 (stereo unspecified) > 76.9 µM
N#Cc1ccsc1NC(=O)CSc1ncnc2ccccc12 > 76.9 µM
O=C(CSc1nnnn1C1CCCC1)N1CCN(C(=O)c2ccco2)CC1 > 76.9 µM
O=C(Oc1ccc(N2C(=O)CCC2=O)cc1)c1ccco1 > 76.9 µM
CN(C)CCNC(=O)c1ccccc1-c1ccccc1 > 76.9 µM
CCc1[nH]nc2c1C1(C(=O)N(Cc3ccccc3)c3ccccc31)C(C#N)=C(N)O2 (stereo unspecified) > 76.9 µM
COc1ccc(C2C(C(=O)c3sc(C)nc3C)=C(O)C(=O)N2CCN(C)C)cc1OC (stereo unspecified) > 76.9 µM
CN(C)c1nc(Oc2ccc(=O)n(C)n2)nc(N2CCOCC2)n1 > 76.9 µM
COc1ccc(-c2nc(C#N)c(NCC3CCCO3)o2)cc1 (stereo unspecified) > 76.9 µM
CCn1cc(C(=O)O)c(=O)c2cc(F)c(N3CCN(C(=O)Nc4ccccc4)CC3)cc21 > 76.9 µM
Cc1cc(C)n(-c2ncnc3sc4c(c23)CCCC4)n1 > 76.9 µM
CC(C)Cn1c(N)c(C(=O)COC(=O)c2ccncc2)c(=O)n(C)c1=O > 76.9 µM
COC(=O)c1ccc(CSc2nnnn2C)o1 > 76.9 µM
CCOC(=O)C1CCN(C(=O)Nc2ccc(NC(=O)C3CCN(C(=O)OCC)CC3)cc2)CC1 > 76.9 µM
COC(=O)CSC1=C(C#N)C(c2ccccc2)CC(=O)N1 (stereo unspecified) > 76.9 µM
COc1ccc2[nH]c(=O)c(CN(C(=O)c3ccncc3)C(C)C)cc2c1 > 76.9 µM
CCN=c1sc(C(=O)NCCc2ccccc2)cc(=O)n1CC > 76.9 µM
COCC(=O)N(Cc1cc2cc(OC)ccc2[nH]c1=O)c1ccccc1OC > 76.9 µM
CCOC(=O)CSc1nc2cc(C(=O)NCc3ccco3)ccc2c(=O)n1-c1ccc(F)cc1 > 76.9 µM
C=CCNC(=O)c1c(N)n(-c2cccc(S(N)(=O)=O)c2)c2nc3ccccc3nc12 > 76.9 µM
O=C(COc1ccc(Cl)cc1Cl)Nc1noc2ccccc12 > 76.9 µM
COc1cccc(N(CC(=O)Nc2ccccc2C)S(C)(=O)=O)c1 > 76.9 µM
Cc1c(C(=O)N2CCN(c3ccccn3)CC2)sc2ncnc(N3CCN(c4ccccc4)CC3)c12 > 76.9 µM
COc1ccccc1C(=O)NCCn1ccc2ccccc21 > 76.9 µM
Cc1cc2c(=O)n(Cc3ccco3)c(SCC(=O)c3ccc(Cl)s3)nc2s1 > 76.9 µM
Nn1c(SCC(=O)Nc2ccc(F)cc2F)nnc1C1CCCCC1 > 76.9 µM
CC1Cc2ccccc2N1C(=O)C1CCN(S(=O)(=O)c2cccs2)CC1 (stereo unspecified) > 76.9 µM
COc1ccc(C(=O)n2nc(-c3ccco3)nc2SC)cc1OC > 76.9 µM
COc1ccccc1N1C(=O)CC(N2CCc3ccccc32)C1=O (stereo unspecified) > 76.9 µM
COC(=O)c1ccc(Oc2nc(Nc3ccc(F)cc3)nc(N3CCCC3)n2)cc1 > 76.9 µM
CC(C)n1nc(C(=O)OCC(=O)N(C)C2CCS(=O)(=O)C2)c2ccccc2c1=O (stereo unspecified) > 76.9 µM
Cc1cc(C)n(C(=O)CCC2COc3ccccc3O2)n1 (stereo unspecified) > 76.9 µM
COc1ccc(-c2nnc3sc(-c4ccccn4)nn23)cc1 > 76.9 µM
COc1ccc(C)cc1NC(=O)CSc1nc(SC)ns1 > 76.9 µM
CCn1c(Cc2ccccc2)nnc1SCC(=O)Nc1nc(C)c(C)s1 > 76.9 µM
Cn1c(=O)c2c(nc(N3CCCCCC3)n2CC(=O)c2ccccc2)n(C)c1=O > 76.9 µM
CCOc1ccccc1COC(=O)c1cccc(-n2cnnn2)c1 > 76.9 µM
COCC(=O)Nc1ccccc1C(=O)NC(C)C > 76.9 µM
C#CCOC(=O)c1ccccc1C(=O)OCC#C > 76.9 µM
CC(=O)c1cccc(NC(=O)CSc2nnc(-c3ccc(S(=O)(=O)N4CCCC4)cc3)o2)c1 > 76.9 µM
C=CCNC(=O)CCCCC(=O)NCC=C > 76.9 µM
CN(C)S(=O)(=O)c1cc(C(=O)NCC2CCCO2)c(Cl)cc1Cl (stereo unspecified) > 76.9 µM
